Measured values as given in PubChem BioAssay AID485294 (National Center for Advancing Translational Sciences (NCATS), 2010).
Values joined by “and” are separate entries in the source; they are usually repeats but may differ in a detail not shown here. Equal entries are not always repeated. The campaign covered roughly 370,000 compounds. About 150 (0.041%) were called active. The inconclusive results got no clear call from the source; some entries with a clear call stand among them for comparison. The call rests on the fitted dose curve; in most records, active means well fitted inhibition curve with a large enough effect; inconclusive means small, poorly fitted or top-dose-only effect; inactive means flat fitted curve, though single readings scatter. Where the call is inconclusive, the potency comes from a doubtful curve fit.

The compounds below were run against Beta-lactamase (Escherichia coli (strain K12)) (UniProt P00811) (assay: qHTS Inhibitors of AmpC Beta-Lactamase (assay with detergent)). Conditions: AmpC hydrolysis of nitrocefin, absorbance 480 nm, 0.01% Triton; series mostly up to 114 µM.
In short: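 AmpC (5.3 nM in the dispensed reagent) in 20 mM phosphate pH 7.0 with 0.01% (detergent screen) or 0.0001% Triton X-100 was preincubated with compounds for 15 min at room temperature. Nitrocefin was then added from an 800 uM solution, and hydrolysis was followed at 480 nm.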
Further: nearly all actives have a fitted effect of over 25% in size.
Potency means the concentration at half of the fitted maximal effect; tags describe the fitted curve by direction and shape.

Sequence of UniProt P00811 (P00811 whole entry, looked up): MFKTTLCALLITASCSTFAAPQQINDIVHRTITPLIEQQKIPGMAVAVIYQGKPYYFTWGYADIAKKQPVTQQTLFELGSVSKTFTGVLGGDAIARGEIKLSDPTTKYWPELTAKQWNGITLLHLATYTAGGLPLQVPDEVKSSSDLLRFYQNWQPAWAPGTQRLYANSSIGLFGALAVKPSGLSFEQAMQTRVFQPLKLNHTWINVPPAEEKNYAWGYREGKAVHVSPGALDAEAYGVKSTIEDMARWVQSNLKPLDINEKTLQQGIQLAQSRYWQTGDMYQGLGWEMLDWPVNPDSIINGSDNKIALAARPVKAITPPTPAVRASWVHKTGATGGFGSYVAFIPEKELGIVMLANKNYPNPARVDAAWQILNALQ

Structure (SMILES)	Potency
CCOC(=O)c1ccccc1NC(=O)Cn1c(=O)n(-c2ccc(CC)cc2)c(=O)c2c(C)c(C(=O)N(C)C)sc21	inactive
CC1CCN(S(=O)(=O)c2c[nH]c(=O)[nH]c2=O)CC1	inactive
CC(C)C(=O)Nc1ccccc1N1CCN(S(C)(=O)=O)CC1	inactive
COC(=O)C(CCSC)NC(=O)Cn1ncc2c(=O)oc3ccc(C)cc3c21 (stereo unspecified)	inconclusive: 3.16 µM [inhibitor, full curve, poor fit]
COC(=O)C1(CO)NC(c2cccs2)C2C(=O)N(c3ccccc3)C(=O)C21 (stereo unspecified)	inconclusive: 100 µM [inhibitor, partial curve, poor fit]
CC(C)c1nn2c(=O)cc(CSc3ccccc3NC(=O)c3ccccc3F)nc2s1	inactive
CC(=O)c1cccc(N=c2scc(-c3ccc(S(=O)(=O)N4CCOCC4)cc3)n2CCO)c1	inactive
Cc1ccc(Cn2cccc2/C=N/NC(=S)Nc2ccc(C)cc2)cc1	inactive
CCOc1ccc(NC(=O)Nc2c[nH]c(=O)[nH]c2=O)cc1	inactive
O=C(COC(=O)c1cc(Cl)ccc1Cl)Nc1ccc2[nH]c(=O)[nH]c2c1	inconclusive: 0.316 µM [inhibitor, full curve, poor fit]
O=C(/C=C/c1ccco1)NC(=S)Nc1cc(-c2nc3ccccc3s2)ccc1Cl	inconclusive: 89.1 µM [inhibitor, single point]
CC1CCN(C(=O)CSc2nnc(Cc3cccn3C)n2CCc2ccccc2)CC1	inconclusive: 3.55 µM [inhibitor, full curve, poor fit]
CCn1c(=O)n(CC)c2cc(NC(=O)C(C)c3ccccc3)c(Br)cc21 (stereo unspecified)	inconclusive: 35.5 µM [inhibitor, full curve, poor fit]
COn1c(=O)c(=O)n(OC)c2ccccc21	inconclusive: 89.1 µM [inhibitor, single point]
O=C(COc1cccc(C(F)(F)F)c1)Nc1cccnc1	inconclusive: 44.7 µM [inhibitor, partial curve, poor fit]
COCCn1c(-c2ccco2)nc2nc3ccccc3nc21	inconclusive: 25.1 µM [inhibitor, full curve]
COc1ccccc1NC(=O)N1C[C@@H]2C[C@@H](C1)c1cccc(=O)n1C2	inconclusive: 12.6 µM [inhibitor, partial curve]
CCCCCCc1ccc(N2C[C@H](Cc3ccccc3)[C@@H](CC(=O)NCc3ccc(OC)cc3)C2=O)cc1	inconclusive: 2 µM [inhibitor, partial curve, poor fit]
Cc1ccc(S(=O)(=O)Cn2nnnc2C(C(C)C)N2CCSCC2)cc1 (stereo unspecified)	inactive
CC(=O)Nc1nc(=S)n(-c2ccccc2)[nH]1	inconclusive: 0.631 µM [inhibitor, full curve, poor fit]
Oc1c(C(c2cccs2)N2CCC3(CC2)OCCO3)sc2ncnn12 (stereo unspecified)	inconclusive: 31.6 µM [inhibitor, partial curve]
O=C(Cn1ncc2c3ccccc3n(Cc3cccc(Cl)c3)c2c1=O)NCCC1=CCCCC1	inactive

Structure (SMILES)	Potency
CCOC(=O)c1ccc(NC(=O)CN2C(=O)c3cccnc3Sc3ccccc32)cc1	inactive
CCOC(=O)C1=CC[C@H]2c3c(c4ccc(OC)cc4n3C)C(=O)C1N2S(=O)(=O)c1ccc(C)cc1	inactive
COc1ccc(Nc2ncc(C(=O)N3CCN(c4ccccc4OC)CC3)c3ccccc23)cc1	inconclusive: 3.16 µM [inhibitor, full curve, poor fit] and inconclusive: 2.24 µM [inhibitor, full curve, poor fit]
CC(=O)ON1C(C)(C)Cc2noc(N)c2C1(C)C	inconclusive: 79.4 µM [inhibitor, single point]
CCN(C(=O)COC(=O)CNS(=O)(=O)c1ccc2ccccc2c1)C1CCCCC1	inconclusive: 12.6 µM [inhibitor, full curve]
Cc1ccccc1NC(=S)N(Cc1cccnc1)Cc1ccco1	inconclusive: 0.794 µM [inhibitor, full curve, poor fit]
Cc1ccc(-n2c(-c3ccc(Cl)cc3)n[nH]c2=S)c(C)c1	inconclusive: 0.631 µM [inhibitor, full curve]
O=C(COC(=O)c1ccccc1Nc1ccccc1)NCc1ccccc1Cl	inconclusive: 3.16 µM [inhibitor, single point]
C=CCOn1c(C)c(C(C)=O)c2c3no[n+]([O-])c3ccc21	inconclusive: 89.1 µM [inhibitor, partial curve]
COC(=O)C1=C(CCc2ccccc2)NC(=O)NC1c1ccc(Br)cc1 (stereo unspecified)	inconclusive: 4.47 µM [inhibitor, full curve, poor fit]
Cc1cccc(C)c1OCCCCN1CCCCC1	inconclusive: 31.6 µM [inhibitor, partial curve, poor fit]
CSCCC(NC(=O)COc1ccccc1)C(=O)OCc1ccc([N+](=O)[O-])cc1 (stereo unspecified)	inconclusive: 7.94 µM [inhibitor, full curve]
COC(=O)C1CCN(S(=O)(=O)CCNC(=O)c2ccc(F)cc2)CC1	inactive
COc1cccc(Oc2c(C)oc3cc(OC(=O)N(C)C)ccc3c2=O)c1	inconclusive: 100 µM [inhibitor, single point]
Cc1nc2ccccc2c(=O)n1/N=C/c1cccs1	inconclusive: 6.31 µM [inhibitor, full curve]
COc1ccccc1OCCNC(=O)C1CCN(C(C)=O)CC1	inconclusive: 2.24 µM [inhibitor, full curve, poor fit]
Cc1ccc(C)n1-c1ccc(C(=O)NCc2cccnc2)cc1	inconclusive: 8.91 µM [inhibitor, full curve]
COc1ccccc1NC(=O)CSc1nnc2ccc(-c3cccnc3)nn12	inconclusive: 44.7 µM [inhibitor, partial curve]
CCCCCN(C(=O)CCC(=O)OCC(=O)c1c(C)cc(C)cc1C)c1c(N)n(CCCC)c(=O)[nH]c1=O	inconclusive: 0.631 µM [inhibitor, full curve]
Cc1ccc(C)c(NC(=O)c2cnc3sc(N4CCOCC4)nn3c2=O)c1	inactive
Cc1ccc(NC(=O)CCCCCC2NC(=O)NC2C)cc1 (stereo unspecified)	inconclusive: 3.16 µM [inhibitor, full curve, poor fit]
Cc1ccc(S(=O)(=O)N(C(=O)c2ccncc2)c2ccc(OC(=O)c3ccncc3)c3ccccc23)cc1	inconclusive: 4.47 µM [inhibitor, full curve, poor fit]

Structure (SMILES)	Potency
Cc1ccc(NC(=O)c2cccc(NC(=O)N3CCSc4ncccc43)c2)cc1F	inactive
CCOc1ccccc1CNC(=O)c1cc2occc2n1C	inconclusive: 50.1 µM [inhibitor, partial curve, poor fit]
COc1ccc(CNC(=O)c2nn(-c3ccccc3)cc2OC)cc1	inconclusive: 3.98 µM [inhibitor, full curve, poor fit]
COc1ccc(C2=C(C=C(C#N)C#N)C(c3ccccc3C)c3ccccc3O2)cc1OC (stereo unspecified)	inconclusive: 100 µM [inhibitor, partial curve, poor fit]
COc1cc(-c2cc(N3C(=O)Nc4ccccc4N3O)n[nH]2)cc(OC)c1OC	inconclusive: 7.94 µM [inhibitor, full curve, poor fit]
COc1ccc2nc(NC(=O)/C=C/c3ccc4c(c3)OCO4)sc2c1	inconclusive: 31.6 µM [inhibitor, full curve, poor fit]
Cc1ccc(Cn2cc(CCC(=O)NCC(C)c3ccccc3)c3ccccc32)cc1 (stereo unspecified)	inactive
COc1ccc(NC(=O)Cn2nnc(-c3nc(-c4ccncc4)no3)c2N)cc1OC	inactive
CCCC(=O)Nc1nc2ccc(C(=O)OCC)cc2s1	inconclusive: 2.51 µM [inhibitor, full curve]
COc1ccc(C2=NN(CCC(=O)NCCc3ccccc3)C(=O)CC2)cc1	inactive
COc1ccc(Cl)cc1NC(=S)NCc1ccccn1	inconclusive: 79.4 µM [inhibitor, single point]
C/C(CC(=O)Nc1ccc(Br)cc1)=N\NC(=O)c1cccc(O)c1	inconclusive: 25.1 µM [inhibitor, partial curve]
O=C(CSc1nc2ccccc2[nH]1)Nc1c(F)cccc1F	inactive
Clc1cccc(-c2sc(Nc3ccccc3)n[n+]2-c2ccccc2)c1Cl	inconclusive: 3.55 µM [inhibitor, partial curve, poor fit]
CC(=O)Nc1ccc(S(=O)(=O)N(C)CC(=O)OCC(=O)Nc2cccnc2Cl)cc1	inconclusive: 1.78 µM [inhibitor, full curve, poor fit]
Cc1nc2c(c(C)c1CCC(=O)Nc1ccc(F)cc1)c(=O)n(C)c(=O)n2C	inactive
COc1ccc(CCC(=O)N2CCCC(Nc3ccc(C)c(C)c3)C2)cc1OC (stereo unspecified)	inconclusive: 8.91 µM [inhibitor, full curve, poor fit]
O=c1[nH]cc(S(=O)(=O)N2CCN(c3cccc(C(F)(F)F)c3)CC2)c(=O)[nH]1	inconclusive: 89.1 µM [inhibitor, single point]
CCCN1CCN(CCCNC(=O)c2cc3c(s2)-c2ccccc2OC3)CC1	inactive and inconclusive: 2.51 µM [inhibitor, single point]
N#Cc1ccccc1OCC(=O)N1CCN(c2ccccc2)CC1	inactive
Cc1coc2c(C)c3oc(=O)c(CCC(=O)N4CCCCC4)c(C)c3cc12	inactive
O=C(Nc1ccc(CN2CCOCC2)cc1)c1ccco1	inactive
